Results are given in words; binding and its absence hold for the method and conditions named. In cells and extracts the contact can be indirect. Some results given as binding are weak or reduced against the parent protein; the word gives no strength.
Legend:
IGF1R-YFP1 (human) [1] = target: IGF1R-YFP1 (human) (UniProt P08069); assay: split reporter; YFP-based protein-fragment complementation assay (YFP-PCA) in HEK293 cells transfected with both plasmids, treated with PTH for 5 min
IGF1R-YFP1 (human) [2] = target: IGF1R-YFP1 (human) (UniProt P08069); assay: split reporter; YFP-based protein-fragment complementation assay (YFP-PCA) in HEK293 cells transfected with both plasmids, treated with vehicle for 5 min
IGF1R-YFP1 (human) [3] = target: IGF1R-YFP1 (human) (UniProt P08069); assay: split reporter; YFP-based protein-fragment complementation assay (YFP-PCA) in HEK293 cells transfected with both plasmids, treated with IGF-1 for 5 min; images and fluorimetry
[4] = target: IGF1R (endogenous, primary calvarial osteoblasts) (not stated (endogenous in primary calvarial osteoblasts)) (UniProt Q60751); assay: co-IP; primary calvarial osteoblasts, endogenous proteins, treated with PTH for 30 min; cell extracts immunoprecipitated and immunoblotted
[5] = target: IGF1R (endogenous, primary calvarial osteoblasts) (not stated (endogenous in primary calvarial osteoblasts)) (UniProt Q60751); assay: co-IP; primary calvarial osteoblasts, endogenous proteins, vehicle; cell extracts immunoprecipitated and immunoblotted
[6] = target: IGF1R (endogenous, primary calvarial osteoblasts) (not stated (endogenous in primary calvarial osteoblasts)) (UniProt Q60751); assay: co-IP; primary calvarial osteoblasts, endogenous proteins, treated with IGF-1 for 30 min; cell extracts immunoprecipitated and immunoblotted
IGF1R-Flag (human) [7] = target: IGF1R-Flag (human) (UniProt P08069); assay: co-IP; HEK293 cells transfected with IGF1R-Flag and PTH1R-HA plasmids, treated with PTH for 30 min; cell extracts immunoprecipitated and immunoblotted
IGF1R-Flag (human) [8] = target: IGF1R-Flag (human) (UniProt P08069); assay: co-IP; HEK293 cells transfected with IGF1R-Flag and PTH1R-HA plasmids, vehicle; cell extracts immunoprecipitated and immunoblotted
IGF1R-Flag (human) [9] = target: IGF1R-Flag (human) (UniProt P08069); assay: co-IP; HEK293 cells transfected with IGF1R-Flag and PTH1R-HA plasmids, treated with IGF-1 for 30 min; cell extracts immunoprecipitated and immunoblotted

By UniProt entry, the sequences of proteins in these tests, tags left out. Residues count along the entry.
UniProt P08069, residues 31-1367: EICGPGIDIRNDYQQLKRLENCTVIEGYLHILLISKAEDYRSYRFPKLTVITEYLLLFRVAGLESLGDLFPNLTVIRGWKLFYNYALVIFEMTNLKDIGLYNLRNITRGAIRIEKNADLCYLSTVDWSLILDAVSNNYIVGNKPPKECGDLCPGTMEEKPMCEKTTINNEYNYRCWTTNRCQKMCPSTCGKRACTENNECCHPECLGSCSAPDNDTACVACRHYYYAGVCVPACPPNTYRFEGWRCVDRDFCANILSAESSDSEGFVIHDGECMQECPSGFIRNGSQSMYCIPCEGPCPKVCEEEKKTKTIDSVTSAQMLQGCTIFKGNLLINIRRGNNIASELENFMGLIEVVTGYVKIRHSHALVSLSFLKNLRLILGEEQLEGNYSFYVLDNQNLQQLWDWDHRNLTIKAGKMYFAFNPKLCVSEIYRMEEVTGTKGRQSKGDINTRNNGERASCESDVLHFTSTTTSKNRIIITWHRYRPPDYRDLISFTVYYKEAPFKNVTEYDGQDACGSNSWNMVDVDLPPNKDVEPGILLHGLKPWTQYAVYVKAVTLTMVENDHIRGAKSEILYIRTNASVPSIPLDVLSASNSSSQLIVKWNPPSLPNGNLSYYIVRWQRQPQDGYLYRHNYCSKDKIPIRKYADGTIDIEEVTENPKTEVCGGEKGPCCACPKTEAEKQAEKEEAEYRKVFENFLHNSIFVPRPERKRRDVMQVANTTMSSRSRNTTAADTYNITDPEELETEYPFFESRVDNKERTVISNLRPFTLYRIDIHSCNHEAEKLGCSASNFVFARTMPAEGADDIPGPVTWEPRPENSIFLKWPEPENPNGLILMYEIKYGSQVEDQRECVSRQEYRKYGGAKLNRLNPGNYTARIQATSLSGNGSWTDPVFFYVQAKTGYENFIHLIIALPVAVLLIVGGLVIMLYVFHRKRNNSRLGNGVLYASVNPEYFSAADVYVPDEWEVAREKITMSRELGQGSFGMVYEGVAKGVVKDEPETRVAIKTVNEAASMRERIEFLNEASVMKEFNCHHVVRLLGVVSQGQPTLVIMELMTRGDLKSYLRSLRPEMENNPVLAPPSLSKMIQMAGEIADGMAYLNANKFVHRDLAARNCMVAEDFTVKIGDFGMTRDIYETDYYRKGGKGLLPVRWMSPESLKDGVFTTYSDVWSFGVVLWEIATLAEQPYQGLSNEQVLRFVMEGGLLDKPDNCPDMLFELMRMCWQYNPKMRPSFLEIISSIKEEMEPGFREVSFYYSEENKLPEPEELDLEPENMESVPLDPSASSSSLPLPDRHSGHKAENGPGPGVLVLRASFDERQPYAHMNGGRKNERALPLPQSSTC
UniProt Q60751, residues 31-1373: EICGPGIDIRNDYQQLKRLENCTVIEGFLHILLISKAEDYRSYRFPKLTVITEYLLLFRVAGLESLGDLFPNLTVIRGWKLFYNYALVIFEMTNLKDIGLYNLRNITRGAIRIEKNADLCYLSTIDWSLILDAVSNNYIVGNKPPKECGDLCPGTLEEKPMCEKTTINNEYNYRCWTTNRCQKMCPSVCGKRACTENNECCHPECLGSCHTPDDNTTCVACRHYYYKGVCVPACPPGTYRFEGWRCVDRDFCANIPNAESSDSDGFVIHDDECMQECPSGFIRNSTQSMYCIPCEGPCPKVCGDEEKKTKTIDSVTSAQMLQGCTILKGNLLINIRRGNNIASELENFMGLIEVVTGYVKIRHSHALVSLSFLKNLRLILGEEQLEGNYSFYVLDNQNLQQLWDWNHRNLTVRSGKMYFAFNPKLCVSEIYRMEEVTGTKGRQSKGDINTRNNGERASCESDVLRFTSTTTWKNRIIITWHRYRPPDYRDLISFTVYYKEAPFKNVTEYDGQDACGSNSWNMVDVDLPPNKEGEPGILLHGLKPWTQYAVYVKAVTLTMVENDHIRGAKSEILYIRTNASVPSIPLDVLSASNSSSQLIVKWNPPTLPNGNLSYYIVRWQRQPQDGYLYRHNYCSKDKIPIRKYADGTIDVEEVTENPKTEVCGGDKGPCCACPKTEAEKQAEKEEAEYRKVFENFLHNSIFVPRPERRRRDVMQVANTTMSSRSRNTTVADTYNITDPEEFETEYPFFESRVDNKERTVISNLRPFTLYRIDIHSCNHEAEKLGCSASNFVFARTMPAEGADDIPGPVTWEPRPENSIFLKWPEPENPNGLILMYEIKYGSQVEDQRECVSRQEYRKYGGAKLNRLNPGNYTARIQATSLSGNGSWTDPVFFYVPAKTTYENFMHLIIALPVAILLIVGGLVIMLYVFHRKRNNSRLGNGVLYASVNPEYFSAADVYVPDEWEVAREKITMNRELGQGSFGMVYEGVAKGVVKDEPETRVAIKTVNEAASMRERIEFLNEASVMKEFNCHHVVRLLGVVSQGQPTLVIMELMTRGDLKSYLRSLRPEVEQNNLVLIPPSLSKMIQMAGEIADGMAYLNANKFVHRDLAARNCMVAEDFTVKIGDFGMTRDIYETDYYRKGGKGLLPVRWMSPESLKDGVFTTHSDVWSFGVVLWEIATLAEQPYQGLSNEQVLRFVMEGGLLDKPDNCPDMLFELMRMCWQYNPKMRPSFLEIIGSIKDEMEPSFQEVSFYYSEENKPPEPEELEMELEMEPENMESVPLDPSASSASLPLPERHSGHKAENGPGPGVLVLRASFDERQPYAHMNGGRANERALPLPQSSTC
UniProt Q03431, residues 27-593: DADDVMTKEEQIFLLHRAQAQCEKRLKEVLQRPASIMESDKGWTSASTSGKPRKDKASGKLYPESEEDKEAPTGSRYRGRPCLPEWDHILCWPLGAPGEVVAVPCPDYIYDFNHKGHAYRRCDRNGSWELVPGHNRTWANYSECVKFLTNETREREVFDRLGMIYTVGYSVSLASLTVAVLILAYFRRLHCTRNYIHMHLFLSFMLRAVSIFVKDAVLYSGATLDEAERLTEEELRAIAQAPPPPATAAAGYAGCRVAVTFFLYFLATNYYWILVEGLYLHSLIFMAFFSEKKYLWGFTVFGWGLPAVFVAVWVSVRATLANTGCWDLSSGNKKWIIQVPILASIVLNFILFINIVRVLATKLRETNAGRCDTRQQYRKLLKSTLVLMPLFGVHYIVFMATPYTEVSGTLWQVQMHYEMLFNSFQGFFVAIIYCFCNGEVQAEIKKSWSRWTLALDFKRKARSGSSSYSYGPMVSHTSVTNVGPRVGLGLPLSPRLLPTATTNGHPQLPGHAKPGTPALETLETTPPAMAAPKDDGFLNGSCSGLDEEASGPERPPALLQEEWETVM
UniProt P41593, residues 27-591: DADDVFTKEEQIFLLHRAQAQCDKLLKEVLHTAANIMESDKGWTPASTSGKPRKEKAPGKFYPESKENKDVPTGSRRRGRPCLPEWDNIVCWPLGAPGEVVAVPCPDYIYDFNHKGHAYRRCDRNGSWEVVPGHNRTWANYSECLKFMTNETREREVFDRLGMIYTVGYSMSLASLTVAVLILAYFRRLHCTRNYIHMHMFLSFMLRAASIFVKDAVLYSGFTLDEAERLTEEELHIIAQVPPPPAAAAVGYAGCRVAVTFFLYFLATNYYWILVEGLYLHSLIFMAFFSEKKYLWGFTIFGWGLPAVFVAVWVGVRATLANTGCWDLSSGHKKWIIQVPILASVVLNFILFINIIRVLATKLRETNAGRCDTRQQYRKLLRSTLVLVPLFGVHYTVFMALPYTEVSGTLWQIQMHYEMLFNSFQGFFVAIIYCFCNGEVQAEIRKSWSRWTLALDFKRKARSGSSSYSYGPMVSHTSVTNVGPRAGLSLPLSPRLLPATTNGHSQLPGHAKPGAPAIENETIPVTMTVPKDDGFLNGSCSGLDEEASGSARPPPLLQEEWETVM

Substance: PTH1R-YFP2 (from UniProt Q03431 27-593) (receptor)
- binding (IGF1R-YFP1 (human) [1]): no binding (condition: with PTH, without IGF-1)
- binding (IGF1R-YFP1 (human) [2]): no binding (condition: vehicle, without IGF-1)
- binding (IGF1R-YFP1 (human) [3]): binds

Substance: PTH1R (endogenous, primary calvarial osteoblasts) (from UniProt P41593 27-591) (receptor)
- binding [4]: no binding (condition: with PTH, without IGF-1)
- binding [5]: no binding (condition: vehicle, without IGF-1)
- binding [6]: binds

Substance: PTH1R-HA (from UniProt Q03431 27-593) (receptor)
- binding (IGF1R-Flag (human) [7]): no binding (condition: with PTH, without IGF-1)
- binding (IGF1R-Flag (human) [8]): no binding (condition: vehicle, without IGF-1)
- binding (IGF1R-Flag (human) [9]): binds

Reference: article PMC5827661
